# Measurements taken from PubChem BioAssay AID1030 (National Center for Advancing Translational Sciences (NCATS), 2008).
# Screen size: about 220,000 compounds; about 16,000 (7.3%) were called active. This list was built around the results that the source calls inconclusive (neither active nor inactive); the mix of calls is not that of the screen. The call rests on the fitted dose curve; in most records, active means well fitted inhibition curve with a large enough effect (not every such curve was filed as active); inconclusive means small, poorly fitted or top-dose-only effect, or another doubt; inactive means no such curve, though single readings can be large or run the other way. Potencies of inconclusive entries are left out as doubtful fits.
# Molecular target: Aldehyde dehydrogenase 1A1 (Homo sapiens) (UniProt P00352)
# Assay: qHTS Assay for Inhibitors of Aldehyde Dehydrogenase 1 (ALDH1A1);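 on activity, negative = inhibition: plate controls were no enzyme wells and a reference inhibitor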
# Conditions: Purified ALDH1A1, NADH fluorescence, propionaldehyde substrate; series mostly up to 75.3 µM; activity, negative = inhibition: at the top concentration
# Potency means the concentration at half of the fitted maximal effect; tags describe the fitted curve by direction and shape.
# Chain of UniProt P00352 (P00352 whole entry, looked up): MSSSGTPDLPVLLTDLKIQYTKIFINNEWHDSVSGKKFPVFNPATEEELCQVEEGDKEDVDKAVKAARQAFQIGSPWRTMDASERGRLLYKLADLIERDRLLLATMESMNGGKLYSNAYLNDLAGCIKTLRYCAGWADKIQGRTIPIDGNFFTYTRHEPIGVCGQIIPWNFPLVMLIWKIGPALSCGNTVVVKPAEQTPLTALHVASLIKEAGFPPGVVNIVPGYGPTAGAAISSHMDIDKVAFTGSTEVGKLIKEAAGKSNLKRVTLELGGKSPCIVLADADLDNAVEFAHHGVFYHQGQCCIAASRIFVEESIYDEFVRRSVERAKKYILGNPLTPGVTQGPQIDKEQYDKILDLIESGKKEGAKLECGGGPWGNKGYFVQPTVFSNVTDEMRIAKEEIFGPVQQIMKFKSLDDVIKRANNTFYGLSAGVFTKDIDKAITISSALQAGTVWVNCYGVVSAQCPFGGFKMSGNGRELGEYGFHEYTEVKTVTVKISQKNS
SMILES,"activity, negative = inhibition",Potency
Cc1nc2ccccc2c(=O)n1NC(=O)CCC(=O)O,inactive: 7.21%,
CCN(CC)CCCn1c(-c2ccccc2)nc2c(NCc3ccccc3)nc(C)nc21,,"inconclusive [inhibitor, partial curve]"
O=C(c1ccccc1F)N1CCN(c2ccc([N+](=O)[O-])c(NCc3cccnc3)c2)CC1,,active: 7.94 µM
CCOC(=O)CC(=O)CSc1nc2nc(C)cc(C)n2n1,,active: 12.6 µM
Cc1c2ccccc2nc2c(F)c(N(C)C)c(F)c(F)c12,,"inconclusive [inhibitor, partial curve]"
CCOC(=O)c1cnc(-c2ccccc2)nc1N(C)C,,"inconclusive [inhibitor, single point]"
Cc1ccc(NC(=O)c2cc(S(=O)(=O)NCCC3=CCCCC3)ccc2F)cc1F,inactive: -9.19%,
COC(=O)c1c(NC(=O)Cc2ccccc2)sc2c1C(C(=O)OC)CC2 (configuration not stated),,"inconclusive [inhibitor, single point]"
Cc1nn(C)cc1/C=N/NC(=O)Cn1nccc1C,inactive: -0.689%,
COC(=O)c1ccccc1NC(=O)CN1CCC(C(=O)c2ccc3c(c2)OCCO3)CC1,,"inconclusive [inhibitor, partial curve]"
Cc1ncoc1C(=O)N1CCc2c([nH]c3ccccc23)C1C1CCCCC1 (configuration not stated),,"inconclusive [inhibitor, single point]"
C/C(=N\NC(=O)c1nn(C)cc1Br)c1cccc(NC(=O)C2CCCC2)c1,inactive: 3.54%,
Cc1nn(-c2ccccc2)c2sc(-c3nnc(SCC(=O)O)o3)cc12,,"inconclusive [inhibitor, partial curve]"
CCCS(=O)(=O)Nc1cc(C(F)(F)F)ccc1OCCOC,,"inconclusive [inhibitor, single point]"
CCCCC/C=C\C\C=C/C=C/C=C/[C@@H](SC[C@H](N)C(=O)NCC(=O)O)[C@@H](O)CCCC(=O)O,inactive: -0.925%,
Cc1cc(C)nc(NS(=O)(=O)c2ccc(NC(=O)c3ccc(S(=O)(=O)N4CCOCC4)cc3)cc2)n1,inactive: 3.24%,
Cc1cc(NS(=O)(=O)c2ccc(NC(=O)c3cc(-c4ccccc4Cl)nc4ccccc34)cc2)no1,inactive: 10.8%,
C=C1c2c(Cl)ccc(O)c2C(O)=C2C(=O)[C@@]3(O)C(O)=C(C(N)=O)C(=O)[C@@H](N(C)C)[C@@H]3[C@@H](O)[C@H]12,,"inconclusive [inhibitor, single point]"
O=C(O)C12CC3CC(C1)CC(n1ncc(N4CCN(c5ccccc5)CC4)c(Cl)c1=O)(C3)C2,,active: 7.08 µM
CN(CCNC(=O)c1cn(C)c2ccc(S(=O)(=O)N3CCCC3)cc2c1=O)CCc1ccccc1,,active: 31.6 µM
CO[C@@H]1COC(=O)[C@@H](C)NC(=O)C/C=C\[C@@H](C)[C@H](NS(=O)(=O)c2ccc(C)cc2)COC(=O)[C@H](C)NC(=O)C/C=C\[C@H]1C,inactive: 9.42% [at 13.5 µM],
c1ccc2c(c1)C(=Nc1ccc(N=C3c4ccccc4-c4ccccc43)cc1)c1ccccc1-2,inactive: 17.1% [at 13.5 µM],
Cc1cc(C)c(NC(=S)NC(=O)c2c(Cl)c(C)nn2C)c([N+](=O)[O-])c1,,"inconclusive [inhibitor, single point]"

SMILES,"activity, negative = inhibition",Potency
O=C(CC1N=C2c3ccccc3N=C(SCc3ccc(Cl)cc3)N2C1=O)NCc1ccco1 (configuration not stated),,"inconclusive [inhibitor, single point]"
O=C(COC(=O)CN1C(=O)c2ccccc2C1=O)Nc1ncc(Cl)cc1Cl,,"inconclusive [inhibitor, single point]"
O=C(NCc1ccc(F)cc1)c1cc(-c2cccs2)on1,,"inconclusive [inhibitor, single point]"
O=C(CCN1CCN(C(c2ccccc2)c2ccccc2)CC1)N/N=C/c1ccc(O)cc1O,inactive: 8.69%,
CCNC(=O)C(=O)Nc1ccc(OC)c(Cl)c1,inactive: 4.75%,
COC(=O)c1ccc(N2CCN(C(C)=O)CC2)c(NC(=O)COc2ccccc2C)c1,,active: 7.94 µM
COC(=O)c1cc2n(n1)CCN(Cc1ccccc1F)C2=O,,"inconclusive [inhibitor, single point]"
COCC(=O)N1CCC2(CC1)CN(c1ccccn1)C2,,"inconclusive [inhibitor, partial curve]"
COc1ccc(/C(O)=C2/C(=O)C(=O)N(CCN3CCOCC3)C2c2ccc(C)cc2)cc1 (configuration not stated),,"inconclusive [inhibitor, single point]"
COC(=O)c1cn(NC(=O)c2ccc([N+](=O)[O-])cc2Cl)c(=O)c2ccccc12,inactive: 2.98%,
COc1ccc(COc2ccccc2C(=O)NCc2ccccc2)cc1F,,"inconclusive [inhibitor, single point]"
Cc1cccc(N2CCN(C(=O)CCN3C(=S)NC(C)(C)CC3C)CC2)c1C (configuration not stated),,"inconclusive [inhibitor, single point]"
COc1ccc(NS(=O)(=O)c2ccc(C(=O)N3CCN(Cc4ccccc4)CC3)cc2)cc1,,active: 3.16 µM
CCSc1nc(O)c(C2OC(=O)c3c2ccc(OC)c3OC)c(=O)n1CC (configuration not stated),inactive: -8.19%,
CN1CCN(c2ccnc(-c3ccoc3)n2)CC1,,"inconclusive [inhibitor, single point]"
COc1cc(OC)c2c(=O)c(-c3ccccc3)coc2c1,,"inconclusive [inhibitor, partial curve]"
O=c1cc(-c2ccccc2)[nH]c2ccc(Cl)cc12,,"inconclusive [inhibitor, single point]"
NC(=O)c1ccccc1NS(=O)(=O)Cc1ccc(Cl)cc1,,"inconclusive [inhibitor, partial curve]"
N#Cc1ccc(N2C(=O)[C@@H]3C(C(=O)C(c4ccccc4)c4ccccc4)=NN[C@@H]3C2=O)cc1,,"inconclusive [inhibitor, single point]"
Nc1nc(N2CCCCC2)nc2ccccc12,,"inconclusive [inhibitor, single point]"
Cc1ccc(-c2csc3nc(=O)c(C)nn23)cc1,,"inconclusive [inhibitor, partial curve]"
Cc1ccc(S(=O)(=O)N(C)C)cc1NC(=O)c1ccc2ccccc2n1,,"inconclusive [inhibitor, partial curve, poor fit]"
CSc1nnc2n(C)c3c(c(=O)n12)C1(CCCC1)Cc1ccccc1-3,,"inconclusive [inhibitor, partial curve]"

SMILES,"activity, negative = inhibition",Potency
CC(=O)c1ccc(Nc2ccc(-c3ccccc3F)nn2)cc1,,"inconclusive [inhibitor, single point]"
CCC(C)[C@H](NC(=O)NC(C)C)C(=O)O (some centres not stated),inactive: 17.1%,
COc1ccc2[nH]c(=O)c(C(=O)O)cc2c1,,"inconclusive [inhibitor, partial curve]"
COc1ccc(C(=O)C2CN(c3ccccc3)CC2c2ccc(Cl)cc2)cc1 (configuration not stated),,"inconclusive [inhibitor, partial curve]"
O=C(Nc1cccc2c1C(=O)NC2=O)c1ccc(N2C(=O)CCC2=O)cc1,,"inconclusive [inhibitor, single point]"
O=C(CC1Nc2ccccc2NC1=O)c1ccccc1 (configuration not stated),,"inconclusive [inhibitor, single point]"
O=C(Nc1ccc2c(c1)OCO2)C1CCN(C(=O)c2cccs2)CC1,,"inconclusive [inhibitor, single point]"
COCCN1C=C(C(=O)OC)C(c2ccc3c(c2)OCO3)C(C(=O)OC)=C1,,"inconclusive [inhibitor, single point]"
COC(=O)C1CC(O)CN1C(=O)NC1CCCCC1 (configuration not stated),,"inconclusive [inhibitor, single point]"
CCS(=O)(=O)Nc1ccccc1C(N)=O,,"inconclusive [inhibitor, partial curve]"
CCOC(=O)c1[nH]c2ccc(OC)cc2c1NC(=O)CCN1CCC(C)CC1,,"inconclusive [inhibitor, single point]"
O=C(Nc1ncc(Cc2ccc(SC(F)F)cc2)s1)c1ccccc1,,"inconclusive [inhibitor, single point]"
CCOC(=O)C1CCN(S(=O)(=O)c2ccc(-n3cnnn3)c(C)c2)CC1,inactive: -3.47%,
Cc1cccc(C)c1NC(=S)NCCc1ccc(O)c(O)c1,,"inconclusive [inhibitor, single point]"
CCCNC(=O)OC[C@@H]1O[C@H](CCO/N=C(\C)CCC(=O)OC[C@@H]2O[C@H](C#Cc3ccccc3)C=C[C@@H]2Oc2ccc(C)cc2)C=C[C@@H]1Oc1ccc(OC)cc1,inactive: 10.9% [at 13.5 µM],
O=C(Oc1cccc(N2C(=O)CCC2=O)c1)C1CC(=O)N(c2ccc(F)cc2)C1 (configuration not stated),inactive: 2.4%,
C[C@H]1Cc2c(-c3ccccc3)nc3c(c2CO1)CN(S(=O)(=O)c1ccc(C#N)cc1)CC3,inactive: 14.3% [at 13.5 µM],
Clc1ccccc1Cc1noc(CN2CCN(Cc3ccccn3)CC2)n1,,"inconclusive [inhibitor, single point]"
CCCCNc1c(N2CCN(C(=O)OCC)CC2)c(=O)c1=O,,"inconclusive [inhibitor, single point]"
CCCCn1nnnc1SCC(=O)c1cc(Cl)ccc1OC,,active: 5.01 µM
CC1C2CC(CC1(C)C)N(C(=O)Nc1ccc3nccnc3c1)C2 (configuration not stated),,"inconclusive [inhibitor, single point]"
